# B1: pro-myostatin (uncleavable precursor, D99A/R263A/R266A) (natural protein)
# chain: not shown
# notes: human myostatin (GDF8), […] (prodomain and growth factor), tolloid and furin cleavage sites mutated; a tobacco etch virus protease site stands between the His6 tag and residue 24; disulfide-linked homodimer; Signal peptide of the mouse IgG heavy chain in the construct (secreted); also called proGDF8; myostatin precursor; source: with kifunensine for crystallography
# Target: the molecule itself
# Experiment: crystal structure; pro-myostatin and 29H4-16 Fab mixed 1:1, complex purified by SEC; sitting drop, 0.1 M Na citrate pH 5.5, 20% PEG 3350, 15% 2-propanol, 3% trimethylamine N-oxide; 2.79 Å, P212121
protein,measurement,value
B1,stoichiometry N,2

# Source: publication PMC7170532, “Structural basis of specific inhibition of extracellular activation of pro- or latent myostatin by the monoclonal antibody SRK-015” (The Journal of Biological Chemistry, 2020)
